# In PubChem BioAssay AID463173 (ICCB-Longwood Screening Facility, Harvard Medical School, 2010):
# In all, about 52,000 compounds went through this assay and about 4,300 (8.3%) were called active. Cut-off read from the data, not from the text of the source: active = survival mostly below about 52% (no sharp cut-off); inactive = mostly above about 56%. Some of the results follow.
# Tested on: DeltatarO mutant
# Assay: growth inhibition of S. aureus wild type versus tarO mutant, primary screen, teichoic acid synthesis inhibitors, RN4220, OD600 (AID 463173)
# Details: OD600, 18 h, active compounds read low, screened at 18.75 µg/mL (by protocol)
row,Compound,survival
1,O=C(C1CCCCC1)N(Cc1cccnc1)c1nc2c(F)cc(F)cc2s1,inactive: 88%
2,CCN1CCOC(=O)C1CC(=O)Nc1ccc(C)c(Cl)c1 (stereo unspecified),inactive: 34%
3,Cn1c(=O)c2c(n(C)c1=O)=NC1(CCCCC1)N=2,inactive: 95%
4,COc1ccc(CNC(=O)CCC2N=C3c4ccccc4N=C(SCc4ccc(F)cc4)N3C2=O)cc1 (stereo unspecified),inactive: 83%
5,Nc1c(C(=O)Nc2cccc(F)c2)sc2nc(-c3cccs3)ccc12,inactive: 69%
6,Cc1ccccc1-c1nc2scc(CCNC(=O)C(=O)Nc3ccc(F)cc3F)n2n1,active: -2%
7,Cc1cc(C)nc(NS(=O)(=O)c2ccc(NC(=O)c3cc(=O)c4ccc(C)c(C)c4o3)cc2)n1,inactive: 62%
8,CCCc1c(C)nc(N)c(C#N)c1-c1ccc(OC)c(OC)c1,inactive: 71%
9,CC(=O)N(C(C)=O)c1ccc(C)cc1,inactive: 102%
10,Cc1ccc2nc(NC(=O)c3ccc(S(=O)(=O)N4CCCc5ccccc54)cc3)sc2c1,inactive: 144%
11,CCN(CC)/C(=N/OCc1ccc(Cl)cc1Cl)c1nonc1N,inactive: 103%
12,COc1ccc(CC(=O)Nc2ccc3nc(Nc4cccc(Cl)c4)cc(C)c3c2)cc1,inactive: 98%
13,CCOC(=O)C1CCCN(c2c(C(=O)c3ccc(C)cc3)cnc3ccc(OCC)cc23)C1 (stereo unspecified),active: 10%
14,Cc1ccc(Nc2c(-c3ccc(N4CCOCC4)cc3)nc3c(C)cccn23)cc1,inactive: 56%
15,Nc1c(C(=O)NCCc2ccccc2)nnn1CC(=O)Nc1ccc(Cl)cc1,inactive: 64%
16,CCCn1c(CCC(=O)Nc2cccc(C)c2C)nc2cccnc21,inactive: 125%
17,O=C(CSc1nc2c([nH]c3ccccc32)c(=O)n1-c1ccccc1)c1ccc(Cl)cc1,inactive: 92%
18,C=Cc1ccc(Cn2c(C(=O)O)c(CNCCc3ccccc3)c3ccc(C)cc32)cc1,inactive: 92%
19,COc1cc(NS(=O)(=O)c2ccc3[nH]c4c(c3c2)CCCC4)cc(OC)c1OC,inactive: 109%
20,Cc1ccc(Cl)cc1N1CCN(C(=O)c2ccc(CS(=O)(=O)c3ccc(Br)cc3)o2)CC1,inactive: 127%
21,Cc1oc2ncn(C)c(=O)c2c1C(=O)N(Cc1ccccc1)C(C)C,inactive: 82%
22,CCOC(=O)c1c(C)[nH]c(CCC(=O)NCc2cccc(OC)c2)c1C,inactive: 89%
23,Cc1ccc(Cl)cc1N1CCN(C(=O)CCn2c(=O)c3cccn3c3cccnc32)CC1,active: 39%

row,Compound,survival
1,COCCn1c(SCC(=O)Nc2cccc(C)c2C)nc2c(oc3ccccc32)c1=O,inactive: 106%
2,CC1(c2ccc(Cl)cc2Cl)OCC(Cn2cncn2)O1 (stereo unspecified),inactive: 83%
3,COc1ccc(CCNC(=O)c2cc3c(-c4ccc(OC)c(OC)c4)nn(C)c3s2)cc1OC,inactive: 91%
4,Cc1cc(-c2ccc(S(=O)(=O)Nc3cc(Cl)ccc3C)s2)on1,inactive: 126%
5,COc1cc(NC(=O)CN2C(=O)C(c3ccc(Cl)cc3)=NC23CCCCC3)cc(OC)c1,inactive: 70%
6,CC(C)c1ccc(C2c3c(oc4ccc(Cl)cc4c3=O)C(=O)N2CCCN2CCOCC2)cc1 (stereo unspecified),inactive: 70%
7,Cc1cc2c(cc3c(SCc4cccc(F)c4)nnc(C)n32)o1,inactive: 68%
8,Cc1cccc(C(=O)N2CCC(N3CCN(Cc4ccc(F)cc4)C(=O)C3=O)CC2)c1,inactive: 94%
9,Cc1ccc(O)c(NC(=O)c2cc(-c3ccc(F)cc3)on2)c1,inactive: 81%
10,O=c1c2c3c(sc2n(Cc2ccccc2F)c(=O)n1-c1ccc(Cl)cc1)CCCC3,inactive: 101%
11,Cc1ccccc1CSCCNC(=O)C1CCN(S(=O)(=O)Cc2ccccc2)CC1,inactive: 101%
12,COC(=O)c1ccc(Cl)cc1NC(=O)NC(C)c1c(-n2cccc2)sc(C)c1C (stereo unspecified),active: 19%
13,COc1ccc(NC(=O)CCc2nc3cccnc3n2-c2ccccc2)cc1Cl,inactive: 56%
14,Cc1oc2ccc(O)c(CN3CCCCC3C)c2c1C(=O)Nc1ccccc1 (stereo unspecified),inactive: 88%
15,O=C(CCc1ccccc1)N1CCc2c([nH]c3ccccc23)C1c1ccc(Cl)cc1 (stereo unspecified),inactive: 71%
16,Cc1cccc(CC(=O)NC2CC(=O)N(c3ccccc3)C2)c1 (stereo unspecified),active: -5%
17,COc1ccc(C(CNC(=O)Cc2ccc(Cl)cc2)N2CCOCC2)cc1 (stereo unspecified),inactive: 75%
18,O=C(CSc1nc(=O)n(CCN2CCOCC2)c2c1CCC2)Nc1cccc(Cl)c1,inactive: 95%
19,O=C(CC(c1cccs1)N1Cc2ccccc2C1=O)Nc1ccc(F)cc1F (stereo unspecified),inactive: 55%
20,Cn1cc(CCCC(=O)NCc2cccc(Br)c2)c2ccccc21,inactive: 66%
21,CCc1nc2ccc(C(=O)NCc3ccccc3C)cc2nc1CC,inactive: 85%
22,COc1ccc(-n2cc(-c3ccccc3)c3c(N4CCCC(C)C4)ncnc32)cc1 (stereo unspecified),inactive: 98%
23,O=c1c(NCc2cccs2)nccn1-c1ccccc1,inactive: 68%

row,Compound,survival
1,COc1ccc(-c2cccc(NS(=O)(=O)c3cc(C(F)(F)F)ccc3Cl)c2)nn1,inactive: 72%
2,O=C(CS(=O)(=O)c1cccc2nsnc12)NCc1ccccc1Cl,inactive: 116%
3,Cc1ccc(CN2c3ccccc3-c3nc(SCC(=O)NCc4ccccc4)ncc3S2(=O)=O)cc1,active: 17%
4,O=C(COc1ccccc1F)Nc1nnc(SCc2cc(=O)n3ccccc3n2)s1,inactive: 84%
5,CCOC(=O)c1cc2c(=O)n3ccccc3nc2n(CC2CCCO2)c1=NC(=O)c1cccc(C)c1 (stereo unspecified),active: 29%
6,Cc1ccccc1Cn1nnc2sc3c(c2c1=O)CCCC3,active: -1%
7,CCOC(=O)c1c(NC(=O)Nc2ccc(F)cc2)sc(C(=O)N(C)C)c1C,inactive: 86%
8,COc1ccc(CCNC(=O)c2ccc3c(c2)N(Cc2ccccc2Cl)C(=O)c2ccccc2S3)cc1OC,inactive: 78%
9,CCn1c(C)nc2cc(Cl)ccc21,inactive: 93%
10,CCC(=O)C1=C(c2ccccc2)N(C(=O)CC)n2c(nnc2-c2ccccc2)S1,active: -5%
11,CN(C)C(=O)CN(C#N)c1nc(Cl)nc(N(C)C)n1,inactive: 92%
12,Cc1ccc(N(CC(=O)Nc2ccc(F)cc2F)S(=O)(=O)c2cccs2)cc1,inactive: 68%
13,COc1ccc(S(=O)(=O)NNc2ncnc3sc4c(c23)CCCC4)cc1,inactive: 64%
14,Cc1c(NC=C(C#N)C#N)c(=O)n(-c2ccccc2)n1C,inactive: 96%
15,CCN(CC)S(=O)(=O)c1ccc(-c2csc(=Nc3cccc(C(F)(F)F)c3)n2Cc2ccc3c(c2)OCO3)cc1,inactive: 150%
16,CCc1ccc(CNC(=O)Cn2nc(-c3ccc(Cl)cc3)ccc2=O)cc1,inactive: 79%
17,COc1ccc(C2c3c(n(C)c4ccccc34)C(=O)N2CC(=O)Nc2ccc(C)cc2Cl)cc1 (stereo unspecified),inactive: 61%
18,CN(C)c1ccc(CNC(=O)C2CCN(S(=O)(=O)c3ccc4c(c3)oc(=O)n4C)CC2)cc1,inactive: 94%
19,COc1cccc(NC(=O)Cn2c(=O)n(Cc3ccc(C(=O)NCc4ccc5c(c4)OCO5)cc3)c(=O)c3ccccc32)c1,inactive: 107%
20,Cc1ccc(S(=O)(=O)N2CCCc3cc(NS(=O)(=O)c4ccc(F)cc4)ccc32)cc1,inactive: 74%
21,O=C(CC1CCCCC1)N1CCN(c2ccccc2)CC1,inactive: 82%
22,CCCCCCc1cc2cc(-c3nnc(-c4cccc(Cl)c4)o3)c(=O)oc2cc1O,inactive: 80%
23,Cc1ccc(NC(=O)c2oc3ccc(S(=O)(=O)N4CCCCC4)cc3c2C)c(C)c1,inactive: 79%

row,Compound,survival
1,Cc1cc(C)c(NC(=O)CN2C(=O)C3(SCC(=O)N3c3ccc(F)cc3)c3ccccc32)c(C)c1 (stereo unspecified),inactive: 74%
2,Cc1cc(C)c(NC(=O)c2c(C)oc3c2C2=NCCN2C=N3)c(C)c1,inactive: 91%
3,Cc1cccc(N2CCN(C(=O)C(C)n3nc(C)n4c(cc5occc54)c3=O)CC2)c1C (stereo unspecified),inactive: 78%
4,COc1ccc(C(=O)N2c3nc(-c4ccco4)nn3C3(CCCCC3)[C@@H]3CCCC[C@@H]32)cc1OC,inactive: 62%
5,O=C(Nc1ccc(F)cc1)c1oc2ccccc2c1NC(=O)C1CCCCC1,active: 11%
6,CCC(Oc1ccc(F)cc1)C(=O)Nc1nc2c(s1)CCCC2 (stereo unspecified),inactive: 83%
7,CC1=CC(C)C2(COC(=O)Nc3ccccc3)COC(C)C1C2C (stereo unspecified),inactive: 95%
8,CC(=O)Nc1ccc(Oc2ccccc2)cc1,inactive: 80%
9,CCc1ccc(-c2cc(C)no2)cc1S(=O)(=O)NCc1ccco1,inactive: 87%
10,c1ccc(-c2nc3ccccn3c2NC2CCCC2)nc1,active: 1%
11,CCOc1ccc(CCNC(=O)c2ccc(-n3c(C)cc4c3CCCC4)cc2)cc1OCC,inactive: 67%
12,CCOC(=O)CNC(=O)c1cc2c(=O)oc3ccccc3c2s1,inactive: 170%
13,CCCCNc1nc2c(S(=O)(=O)c3ccc(C)cc3)nnn2c2ccsc12,inactive: 114%
14,CCOc1ccc(N2CC(NC(=O)c3ccc4c(c3)OCO4)CC2=O)cc1 (stereo unspecified),inactive: 70%
15,Cc1cc(C)n(CCC(=O)Nc2ccc(Cl)cc2)n1,inactive: 87%
16,Cc1ccc(C)c(N2CCN(c3nc4ccc(C)cc4nc3-n3nc(C)cc3C)CC2)c1,inactive: 102%
17,O=C(Nc1ccccc1C(=O)OCc1cc(=O)n2nc(C3CC3)sc2n1)c1ccc(Cl)cc1,inactive: 78%
18,CCOCCc1nnc(NC(=O)C(=O)c2cc(C)n(-c3ccc(C)c(C)c3)c2C)s1,inactive: 55%
19,Cc1ccc(N2CCN(S(=O)(=O)c3nnc(NC(=O)c4ccccc4)s3)CC2)cc1,inactive: 57%
20,Cc1c(C)n(Cc2ccccc2)c2ccc(C(=O)NCC(C)c3ccccc3)cc12 (stereo unspecified),inactive: 75%
21,O=C1/C(=C\c2ccco2)SC(=S)N1Cc1ccccc1,inactive: 73%
22,O=C(CSc1nc2c([nH]c3ccccc32)c(=O)n1-c1cccc(Cl)c1)N1CCCC1,inactive: 75%
